Source: the supplement of paper PMC11876631
Changes are numbered by the printed parent chain. In names and notes the source's numbering stands. ± gives the standard deviation of the averaged measurements. Laboratory Escherichia coli strains with one amino-acid change in an essential protein, pooled on minimal glucose agar with carbenicillin or gentamicin at twice the control MIC (plus kanamycin and chloramphenicol for the plasmids), 48 h. Fold change of barcode share against drug-free plates; higher = less susceptible. Active = above 20 in both replicates (the paper's putatively resistant). '<' = one read or none on drug, '>' = one read or none on a drug-free plate. Shares are relative, so most strains fall below 1 when a few take over. Listed are strains with at least 15 reads on both drug-free plates, and hits; most hits rest on fewer reference reads. Replicate rank correlation about 0.5. Edits are read from barcodes.

Target: Escherichia coli (laboratory strain)
Assay: barcode share on antibiotic plates over drug-free plates; higher = less susceptible
Description: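 A pool of E. coli strains, each edited to carry one amino-acid change in an essential protein, was grown for 48 h on minimal glucose agar with or without antibiotic; strain barcodes were sequenced; mean of two replicates.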

[1] = antibiotic: carbenicillin, 2× MIC (3.1 µg/mL)
[2] = antibiotic: gentamicin, 2× MIC (MIC 0.45 µg/mL)

B1: ribA M136A (protein)
chain: MQLKRVAEAKLPTPWGDFLMVGFEELATGHDHVALVYGDISGHTPVLARVHSECLTGDALFSLRCDCGFQLEAALTQIAEEGRGILLYHRQEGRNIGLLNKIRAYALQDQGYDTVEANHQLGFAADERDFTLCADAFKLLGVNEVRLLTNNPKKVEILTEAGINIVERVPLIVGRNPNNEHYLDTKAEKMGHLLNK
[1]
  fold change of barcode share: 0.334 ± 0.11
[2]
  fold change of barcode share: 0.023 ± 0.02

B2: ribA M136Q (protein)
chain: B1 chain with A136Q
[1]
  fold change of barcode share: 0.323 ± 0.08

B3: ribA F137W (protein)
chain: B1 chain with A136M, F137W
[1]
  fold change of barcode share: 0.326 ± 0.015
[2]
  fold change of barcode share: < 0.0152

B4: ribA F137A (protein)
chain: B1 chain with A136M, F137A
[1]
  fold change of barcode share: 0.257 ± 0.0035
[2]
  fold change of barcode share: < 0.0173

B5: ribC V26A (protein)
chain: MFTGIVQGTAKLVSIDEKPNFRTHVAELPDHMLDGLETGASVAHNGCCLTVTEINGNHVSFDLMKETLRITNLGDLKVGDWVNVERAAKFSDEIGGHLMSGHIMTTAEVAKILTSENNRQIWFKVQDSQLMKYILYKGFIGIDGISLTVGEVTPTRFCVHLIPETLERTTLGKKKLGARVNIEIDPQTQAVVDTVERVLAARENAMNQPGTEA
[1]
  fold change of barcode share: 0.11 ± 0.13
[2]
  fold change of barcode share: < 0.0152

B6: ribC V26Q (protein)
chain: B5 chain with A26Q
[1]
  fold change of barcode share: 0.177 ± 0.027
[2]
  fold change of barcode share: < 0.00517

B7: ribC V26D (protein)
chain: B5 chain with A26D
[1]
  fold change of barcode share: 0.27 ± 0.28
[2]
  fold change of barcode share: 0.353 ± 0.48

B8: ribD V97D (protein)
chain: MQDEYYMARALKLAQRGRFTTHPNPNVGCVIVKDGEIVGEGYHQRAGEPHAEVHALRMAGEKAKGATAYVTLEPCSHHGRTPPCCDALIAAGVARVDASMQDPNPQVAGRGLYRLQQAGIDVSHGLMMSEAEQLNKGFLKRMRTGFPYIQLKLGASLDGRTAMASGESQWITSPQARRDVQLLRAQSHAILTSSATVLADDPALTVRWSELDEQTQALYPQQNLRQPIRIVIDSQNRVTPVHRIVQQPGETWFARTQEDSREWPETVRTLLIPEHKGHLDLVVLMMQLGKQQINSIWVEAGPTLAGALLQAGLVDELIVYIAPKLLGSDARGLCTLPGLEKLADAPQFKFKEIRHVGPDVCLHLVGA
[1]
  fold change of barcode share: 0.236 ± 0.098
[2]
  fold change of barcode share: < 0.00592

B9: ribD L364Q (protein)
chain: B8 chain with D97V, L364Q
[1]
  fold change of barcode share: 0.41 ± 0.17
[2]
  fold change of barcode share: 0.556 ± 0.31

B10: ribD M7D (protein)
chain: B8 chain with M7D, D97V
[1]
  fold change of barcode share: 0.377 ± 0.086
[2]
  fold change of barcode share: 0.0968 ± 0.12

B11: ribD M7A (protein)
chain: B8 chain with M7A, D97V
[1]
  fold change of barcode share: 0.407 ± 0.21
[2]
  fold change of barcode share: < 0.018

B12: ribD L364W (protein)
chain: B8 chain with D97V, L364W
[1]
  fold change of barcode share: 1.8001 ± 0.00063
[2]
  fold change of barcode share: 768 [active]

B13: ribD L364A (protein)
chain: B8 chain with D97V, L364A
[1]
  fold change of barcode share: 0.3115 ± 0.0014
[2]
  fold change of barcode share: 11.5 ± 10

B14: ribD M7Q (protein)
chain: B8 chain with M7Q, D97V
[1]
  fold change of barcode share: 0.263 ± 0.018

B15: ribD M7W (protein)
chain: B8 chain with M7W, D97V
[1]
  fold change of barcode share: 0.371 ± 0.034
[2]
  fold change of barcode share: < 0.0189
